This is one part of the list. Shown are side measurements of this screen, not its main read-out; they come without a call.
Key:
Experiment in all cases: Primary Screen for Target Class Profiling of Small Molecule Inhibitors of Methyltransferases
[1] = target: Glycine N-methyltransferase (Homo sapiens) (UniProt Q14749); settings: purified enzyme, MTase-Glo SAH luminescence; measured here: GNMT inhibition; at 40 µM; stronger effect = lower value
Summary of the method: (§1)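 Each enzyme was assayed with SAM and its substrate. SAH formation detected by MTase-Glo luminescence; single-point 40 uM screen[…].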

[2] = target: Guanidinoacetate N-methyltransferase (Homo sapiens) (UniProt Q14353); settings: purified enzyme, MTase-Glo SAH luminescence; measured here: GAMT inhibition; at 40 µM; stronger effect = lower value
Summary of the method: as §1

[3] = target: Histamine N-methyltransferase (Homo sapiens) (UniProt P50135); settings: purified enzyme, MTase-Glo SAH luminescence; measured here: HNMT inhibition; at 40 µM; stronger effect = lower value
Summary of the method: as §1

[4] = target: Nicotinamide N-methyltransferase (Homo sapiens) (UniProt P40261); settings: purified enzyme, MTase-Glo SAH luminescence; measured here: NNMT inhibition; at 40 µM; stronger effect = lower value
Summary of the method: as §1

[5] = target: Phenylethanolamine N-methyltransferase (Homo sapiens) (UniProt P11086); settings: purified enzyme, MTase-Glo SAH luminescence; measured here: PNMT inhibition; at 40 µM; stronger effect = lower value
Summary of the method: as §1
% is set by controls: 0 for no effect and ±100 for the full control effect.

| Structure (SMILES) | activity change, negative = inhibition [1] [%] | activity change, negative = inhibition [2] [%] | activity change, negative = inhibition [3] [%] | activity change, negative = inhibition [4] [%] | activity change, negative = inhibition [5] [%] |
| --- | --- | --- | --- | --- | --- |
| COc1ccc(CNC(=O)c2cc3n(n2)CC(C)(C(=O)NCc2ccccc2)N(C)C3=O)cc1 (configuration not stated) | 8.96 | 0 | 4.6 | 10.2 | 1.7 |
| Cc1ccc(N2CCN(S(=O)(=O)N3CCCCC3)CC2)c(C)c1 | -8.32 | -6.88 | 0.315 | -22.4 | -2.15 |
| O=c1ccn(C2OC(CO)C(O)C2O)c(=O)[nH]1 (configuration not stated) | 0 | 5.77 | 11.2 | -5.1 | 0.288 |
| COC(=O)c1ccccc1O[C@@H]1O[C@H](CO[C@@H]2OC[C@@H](O)[C@H](O)[C@H]2O)[C@@H](O)[C@H](O)[C@H]1O | 0 | 5.73 | 9.84 | -4.17 | 5.67 |
| Brc1cccc(-c2nnn3c2nc(N2CCCCC2)c2ccccc23)c1 | 1.58 | 0 | 7.88 | 7.18 | -2.11 |
| COc1cc(C2OCC3(O)C(c4ccc(O[C@@H]5O[C@H](CO)[C@@H](O)[C@H](O)[C@H]5O)c(OC)c4)OCC23O)ccc1O (some centres not stated) | 4.79 | 8.12 | 11.2 | -4.05 | 7.21 |
| CCOC(=O)c1cc2n(n1)CC(C)(C(=O)NC1CCC(C)CC1)N(c1ccccc1C)C2=O (configuration not stated) | -0.792 | 3.53 | -0.939 | 1.47 | 0.281 |
| Cc1ccccc1CN1C2=NCCN2C(=O)C2=C1CCN(Cc1ccccc1)C2 | -2.9 | 0.477 | -4.15 | -16.2 | -8.77 |
| CCC(C)NC(=O)c1ccc2c(=O)n(C)c3nn(CC(=O)NCc4ccc(C)cc4)c(=O)n3c2c1 (configuration not stated) | 7.85 | 1.8 | 10.8 | 0.942 | 6.63 |
| CC(C)C[C@H]1NC(=O)[C@@H]2C[C@@H](NC(=O)CS(=O)(=O)c3ccccc3)CCN2C1=O | -3.59 | -4.42 | -4.32 | -5.77 | -2.22 |
| COc1ccc(CCN(C)CCCC(C#N)(c2cc(OC)c(OC)c(OC)c2)C(C)C)cc1OC (configuration not stated) | -1.14 | 10.2 | -0.603 | -6.3 | 10.8 |
| COC(=N)c1nc2ccc3ncnc(Nc4ccc(F)cc4Br)c3c2s1 | – | 16.2 | – | -20 | 5.31 |
| Nc1nc2c(cnn2CCCc2ccc(O)cc2)c2nc(-c3ccco3)nn12 | -7.62 | -8.36 | 0.391 | -18.4 | -3.68 |
| Cc1ccc(F)cc1S(=O)(=O)N[C@@H]1CCN(Cc2ccc(OC(C)C)cc2)C1 | -0.535 | -2.9 | -3.24 | -17.1 | -9.76 |
| COc1ccc(S(=O)(=O)N2CCC(OCCOc3ccccc3)CC2)cc1 | 1.86 | 2.77 | 15.6 | 6.91 | 8.42 |
| CCOC(=O)c1cc2n(n1)CC(C)(C(=O)NCCCOC)N(c1ccc(OC)cc1)C2=O (configuration not stated) | 10.3 | 0.794 | 9.22 | 10 | 9.35 |
| CC1(C(=O)NCc2ccccc2Cl)Cn2cnc(C(=O)NCCN3CCOCC3)c2C(=O)N1C1CC1 (configuration not stated) | 3.49 | 0.95 | 14.9 | 3.89 | 9.51 |
| CNC(=O)C(C)(C)N1CCC[C@H]1C(=O)NC1CCCCC1 | -5.44 | -11.7 | -3.97 | -10.4 | -12.2 |
| CCn1ncc(CN2CC[C@@H]3CN(S(C)(=O)=O)[C@@H]3C2)c1C | -1.67 | -2.64 | 0.54 | 2.06 | -4.69 |
| O=C1NC(=O)C(c2c[nH]c3ccccc23)=C1c1c[nH]c2ccccc12 | -46.8 | – | -57 | -62.8 | -64.3 |
| CC(C)(C)c1cc(CN2CCN(CC(O)c3ccc(Cl)cc3)CC2)cc(C(C)(C)C)c1O (configuration not stated) | 1.6 | -0.261 | 3.4 | -16.2 | -2.86 |
| CCc1ccc(N2C(=O)c3cc4sc(CC)cc4n3CC2(C)C(=O)NC2CCC(C)CC2)cc1 (configuration not stated) | 0.587 | 4.08 | 0.965 | 5.42 | 0.029 |
| CCCn1c(=O)c2ccccc2n2c(SCC(=O)Nc3ccc(C)cc3C)nnc12 | -4.56 | 0 | -1.13 | -5.53 | 2.95 |
| O=C1NC2(CCCN([S+](=O)([O-])c3ccsc3)C2)COc2ccccc21 (configuration not stated) | -1.85 | 1.64 | 0.599 | -20.5 | -10.5 |
| CC12CCC3c4ccc(OC5OC(C(=O)O)C(O)C(O)C5O)cc4CCC3C1CCC2O (configuration not stated) | 2.62 | 7.48 | 12.5 | -6.64 | 2.2 |
| O=C1c2cc3sccc3n2CC(C(=O)NC2CCCCCC2)(c2ccccc2)N1Cc1ccccc1 (configuration not stated) | 6.5 | 0.221 | 2.91 | 7.34 | 1.78 |
| COc1cc(O)cc(C)c1C(=O)O[C@H]1[C@@H](OC(C)=O)[C@H](n2ccc(=O)[nH]c2=O)O[C@@H]1CO | 2.34 | 3.8 | 11.4 | -8.4 | -3.08 |
| COc1cc(SC)ccc1C(=O)N[C@H]1CCN2C(=O)N(c3cccc(C(F)(F)F)c3)C(=O)[C@@H]2C1 | -4.18 | -2.26 | -0.829 | -13.5 | -4.78 |
| CC[C@H](C)C(=O)O[C@H]1CCC=C2C=C[C@H](C)[C@H](CC[C@@H]3C[C@@H](O)CC(=O)O3)[C@H]21 | -2.24 | 10.4 | 1.96 | -9.77 | 1.95 |
